According to the supplement of paper PMC8728848:
This is one part of the list.

Legend:
Test in all cases: glycan array binding signal (z-score within array); higher = stronger binding
Conditions in all cases: glycan notation: IUPAC condensed, linker removed
Fuc(a1-2)Gal = molecular target: Fuc(a1-2)Gal
Outline: (§1)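 Glycan array data were curated from 3228 arrays in the Consortium for Functional Glycomics database and kept only where the protein sequence was available. Glycan names were converted to IUPAC-condensed notation, and columns mapping to the same glycan were averaged. The binding signal is a within-array Z-score, averaged across arrays of the same protein sequence at different concentrations or buffers and across linkers. Negative Z-scores can be read as non-binding.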

Fuc(a1-2)Gal(b1-3)GalNAc = molecular target: Fuc(a1-2)Gal(b1-3)GalNAc
Outline: as §1

[1] = molecular target: Fuc(a1-2)Gal(b1-3)GalNAc(b1-3)Gal
Outline: as §1

[2] = molecular target: Fuc(a1-2)Gal(b1-3)GalNAc(b1-3)Gal(a1-4)Gal(b1-4)Glc
Outline: as §1

[3] = molecular target: Fuc(a1-2)Gal(b1-3)GalNAc(b1-4)[Neu5Ac(a2-3)]Gal(b1-4)Glc
Outline: as §1

Fuc(a1-2)Gal(b1-3)GlcNAc = molecular target: Fuc(a1-2)Gal(b1-3)GlcNAc
Outline: as §1

[4] = molecular target: Fuc(a1-2)Gal(b1-3)GlcNAc(b1-3)Gal(b1-4)Glc
Outline: as §1

[5] = molecular target: Fuc(a1-2)Gal(b1-3)[Fuc(a1-4)]GlcNAc
Outline: as §1

Fuc(a1-2)Gal(b1-4)Glc = molecular target: Fuc(a1-2)Gal(b1-4)Glc
Outline: as §1

Fuc(a1-2)Gal(b1-4)GlcNAc = molecular target: Fuc(a1-2)Gal(b1-4)GlcNAc
Outline: as §1

[6] = molecular target: Fuc(a1-2)Gal(b1-4)GlcNAc(b1-3)Gal(b1-4)GlcNAc
Outline: as §1

[7] = molecular target: Fuc(a1-2)Gal(b1-4)GlcNAc(b1-3)Gal(b1-4)GlcNAc(b1-3)Gal(b1-4)GlcNAc
Outline: as §1

[8] = molecular target: Fuc(a1-2)Gal(b1-4)[Fuc(a1-3)]GlcNAc
Outline: as §1

[9] = molecular target: Fuc(a1-2)Gal(b1-4)[Fuc(a1-3)]GlcNAc(b1-3)Gal(b1-4)[Fuc(a1-3)]GlcNAc
Outline: as §1

[10] = molecular target: Fuc(a1-2)Gal(b1-4)[Fuc(a1-3)]GlcNAc(b1-3)Gal(b1-4)[Fuc(a1-3)]GlcNAc(b1-3)Gal(b1-4)[Fuc(a1-3)]GlcNAc
Outline: as §1

Fuc(a1-2)GlcNAc = molecular target: Fuc(a1-2)GlcNAc
Outline: as §1

Fuc(a1-2)[Gal(a1-3)]Gal = molecular target: Fuc(a1-2)[Gal(a1-3)]Gal
Outline: as §1

[11] = molecular target: Fuc(a1-2)[Gal(a1-3)]Gal(b1-3)GlcNAc
Outline: as §1

[12] = molecular target: Fuc(a1-2)[Gal(a1-3)]Gal(b1-4)Glc
Outline: as §1

[13] = molecular target: Fuc(a1-2)[Gal(a1-3)]Gal(b1-4)GlcNAc
Outline: as §1

[14] = molecular target: Fuc(a1-2)[Gal(a1-3)]Gal(b1-4)[Fuc(a1-3)]GlcNAc
Outline: as §1

[15] = molecular target: Fuc(a1-2)[Gal(a1-4)]Gal(b1-4)GlcNAc
Outline: as §1

[16] = molecular target: Fuc(a1-2)[GalNAc(a1-3)]Gal
Outline: as §1

[17] = molecular target: Fuc(a1-2)[GalNAc(a1-3)]Gal(b1-3)GlcNAc
Outline: as §1

[18] = molecular target: Fuc(a1-2)[GalNAc(a1-3)]Gal(b1-4)Glc
Outline: as §1

[19] = molecular target: Fuc(a1-2)[GalNAc(a1-3)]Gal(b1-4)GlcNAc
Outline: as §1

[20] = molecular target: Fuc(a1-2)[GalNAc(a1-3)]Gal(b1-4)[Fuc(a1-3)]GlcNAc
Outline: as §1

[21] = molecular target: Fuc(a1-2)[GalNAc(a1-4)]Gal(b1-4)GlcNAc
Outline: as §1

[22] = molecular target: Fuc(a1-2)[GalNAc(b1-3)]Gal
Outline: as §1

Fuc(a1-3)GlcNAc = molecular target: Fuc(a1-3)GlcNAc
Outline: as §1

[23] = molecular target: Fuc(a1-3)[Gal(b1-4)]GlcNAc
Outline: as §1

[24] = molecular target: Fuc(a1-3)[Gal(b1-4)]GlcNAc(b1-4)Gal(b1-4)[Fuc(a1-3)]GlcNAc
Outline: as §1

[25] = molecular target: Fuc(a1-3)[Gal(b1-4)]GlcNAc(b1-4)Gal(b1-4)[Fuc(a1-3)]GlcNAc(b1-4)Gal(b1-4)[Fuc(a1-3)]GlcNAc
Outline: as §1

[26] = molecular target: Fuc(a1-3)[Gal3S(b1-4)]GlcNAc
Outline: as §1

[27] = molecular target: Fuc(a1-3)[GalNAc(b1-4)]GlcNAc
Outline: as §1

Fuc(a1-4)GlcNAc = molecular target: Fuc(a1-4)GlcNAc
Outline: as §1

Fuc(b1-3)GlcNAc = molecular target: Fuc(b1-3)GlcNAc
Outline: as §1

B1: RSVL (Crotalus atrox), P21963 (protein)
chain: NNCPLDWLPMNGLCYKIFNQLKTWEDAEMFCRKYKPGCHLASFHRYGESLEIAEYISDYHKGQENVWIGLRDKKKDFSWEWTDRSCTDYLTWDKNQPDHYQNKEFCVELVSLTGYRLWNDQVCESKDAFLCQCKF
Fuc(a1-2)Gal
  glycan array binding signal (z-score): -0.366
Fuc(a1-2)Gal(b1-3)GalNAc
  glycan array binding signal (z-score): -0.363
[1]
  glycan array binding signal (z-score): -0.328
[2]
  glycan array binding signal (z-score): -0.367
[3]
  glycan array binding signal (z-score): -0.362
Fuc(a1-2)Gal(b1-3)GlcNAc
  glycan array binding signal (z-score): -0.349
[4]
  glycan array binding signal (z-score): -0.367
[5]
  glycan array binding signal (z-score): -0.364
Fuc(a1-2)Gal(b1-4)Glc
  glycan array binding signal (z-score): -0.366
Fuc(a1-2)Gal(b1-4)GlcNAc
  glycan array binding signal (z-score): -0.365
[6]
  glycan array binding signal (z-score): -0.363
[7]
  glycan array binding signal (z-score): -0.36
[8]
  glycan array binding signal (z-score): -0.366
[9]
  glycan array binding signal (z-score): -0.367
[10]
  glycan array binding signal (z-score): -0.366
Fuc(a1-2)GlcNAc
  glycan array binding signal (z-score): -0.364
Fuc(a1-2)[Gal(a1-3)]Gal
  glycan array binding signal (z-score): -0.367
[11]
  glycan array binding signal (z-score): -0.367
[12]
  glycan array binding signal (z-score): -0.35
[13]
  glycan array binding signal (z-score): -0.367
[14]
  glycan array binding signal (z-score): -0.361
[15]
  glycan array binding signal (z-score): -0.352
[16]
  glycan array binding signal (z-score): 1.79
[17]
  glycan array binding signal (z-score): 1.34
[18]
  glycan array binding signal (z-score): 1.84
[19]
  glycan array binding signal (z-score): 2.38
[20]
  glycan array binding signal (z-score): -0.047
[21]
  glycan array binding signal (z-score): 1.5
[22]
  glycan array binding signal (z-score): -0.106
Fuc(a1-3)GlcNAc
  glycan array binding signal (z-score): -0.364
[23]
  glycan array binding signal (z-score): -0.358
[24]
  glycan array binding signal (z-score): -0.367
[25]
  glycan array binding signal (z-score): -0.349
[26]
  glycan array binding signal (z-score): -0.364
[27]
  glycan array binding signal (z-score): -0.367
Fuc(a1-4)GlcNAc
  glycan array binding signal (z-score): 0.078
Fuc(b1-3)GlcNAc
  glycan array binding signal (z-score): -0.366
